Consider 36 molecules from patent US11178870B2 (priority 2017, dated 2021).

A value given as a limit tells only on which side of the number the result lay.

In the first assay the test system is Colletotrichum orbiculare.
Test: not given
As to conditions: in vivo.
For the molecule `Cn1c(-c2c(F)cc(F)cc2F)c(-n2cc(Cl)cn2)cc(Cl)c1=O` [Compound 175], the “Test H control value” is reported as “H (key: H shows the control value more than 50%; L shows the control value of 50% or less)”. As to `Cn1c(-c2c(F)cc(F)cc2F)c(-n2cc(Cl)cn2)cc(Br)c1=O` [Compound 176], the “Test H control value” was “H (key: H shows the control value more than 50%; L shows the control value of 50% or less)”. Same read-out and setting: the value for `COc1cc(F)c(-c2c(-n3cc(Cl)cn3)cc(Cl)c(=O)n2C)c(F)c1` [Compound 177] was “H (key: H shows the control value more than 50%; L shows the control value of 50% or less)”. In the case of `COc1cc(F)c(-c2c(-n3cc(Cl)cn3)cc(Br)c(=O)n2C)c(F)c1` [Compound 178], the “Test H control value” was “H (key: H shows the control value more than 50%; L shows the control value of 50% or less)”. On the same count and under the same terms, then `CCn1c(-c2ccccc2Cl)c(-n2ncc(C)c2Cl)cc(Cl)c1=O` [Compound 179], with “H (key: H shows the control value more than 50%; L shows the control value of 50% or less)”; and `CCn1c(-c2ccccc2Cl)c(-n2cc(C)cn2)cc(Br)c1=O` [Compound 180], with “H (key: H shows the control value more than 50%; L shows the control value of 50% or less)”. The same measure, in the same setting: the value for `CCn1c(-c2ccccc2Cl)c(-n2ncc(C)c2Cl)cc(Br)c1=O` [Compound 181] was “H (key: H shows the control value more than 50%; L shows the control value of 50% or less)”; that for `CCn1c(-c2ccc(F)cc2F)c(-n2ncc(C)c2Cl)cc(Cl)c1=O` [Compound 182] was “H (key: H shows the control value more than 50%; L shows the control value of 50% or less)”. On the same count and under the same terms, then `CCn1c(-c2ccccc2Br)c(-n2cc(Cl)cn2)ccc1=O` [Compound 183], with “H (key: H shows the control value more than 50%; L shows the control value of 50% or less)”.

Another assay concerns Colletotrichum orbiculare. Briefly: whole plant or invertebrate. To be noted: in Cucumis sativus, read-out: Test H control value.
As for `CCN1C(=O)CCC(c2cccs2)=C1c1c(F)cccc1F` [compound 2, 6-(2,6-difluorophenyl)-1-ethyl-5-(thiophen-2-yl)-3,4-dihydropyridin-2(1H)-one], the pest or weed control at 250 ppm is > 50%.

As for `CCn1c(-c2c(F)cccc2F)c(-c2cccs2)ccc1=O` [compound 5, 6-(2,6-difluorophenyl)-1-ethyl-5-(thiophen-2-yl)pyridin-2(1H)-one], the pest or weed control at 250 ppm was > 50%. On the same count and under the same terms, the value for `CCn1c(-c2c(F)cccc2F)c(-c2ccc(Cl)s2)ccc1=O` [compound 6, 5-(5-chlorothiophen-2-yl)-6-(2,6-difluorophenyl)-1-ethylpyridin-2(1H)-one] was < 50%; that for `CCn1c(-c2c(F)cccc2F)c(-c2ccc(Cl)s2)cc(Cl)c1=O` [compound 7, 3-chloro-5-(5-chlorothiophen-2-yl)-6-(2,6-difluorophenyl)-1-ethylpyridin-2(1H)-one] was < 50%; that for `CCn1c(-c2c(F)cc(F)cc2F)c(C2OCCCO2)cc(Cl)c1=O` [compound 8, 3-chloro-5-(1,3-dioxan-2-yl)-1-ethyl-6-(2,4,6-trifluorophenyl)-pyridin-2(1H)-one] was < 50%. Same read-out and setting: the value for `CCn1c(-c2c(F)cccc2F)c(-c2cccnc2Cl)cc(Cl)c1=O` [compound 18] was > 50%. Consider `CCn1c(-c2c(F)cc(F)cc2F)c(-c2ccnn2C)cc(Cl)c1=O` [compound 20, 3-chloro-1-ethyl-5-(1-methyl-1H-pyrazol-5-yl)-6-(2,4,6-trifluorophenyl)pyridin-2(1H)-one], for which the pest or weed control at 250 ppm is > 50%. As to `CCn1c(-c2c(F)cc(F)cc2F)c(-c2c(Br)cnn2C)cc(Cl)c1=O` [compound 21, 5-(4-bromo-1-methyl-1H-pyrazol-5-yl)-3-chloro-1-ethyl-6-(2,4,6-trifluorophenyl)pyridin-2(1H)-one], the pest or weed control at 250 ppm is > 50%. As to `CCn1c(-c2c(F)cc(OC)cc2F)c(-c2c(Br)cnn2C)cc(Cl)c1=O` [compound 23, 5-(4-bromo-1-methyl-1H-pyrazol-5-yl)-3-chloro-6-(2,6-difluoro-4-methoxyphenyl)-1-ethylpyridin-2(1H)-one], the pest or weed control at 250 ppm is > 50%. On the same count and under the same terms, then `CCn1c(-c2c(F)cc(F)cc2F)c(-c2nn(C)cc2Br)cc(Cl)c1=O` [compound 24, 5-(4-bromo-1-methyl-1H-pyrazol-3-yl)-3-chloro-1-ethyl-6-(2,4,6-trifluorophenyl)pyridin-2(1H)-one], with > 50%; and `CCN1C(=O)CCC(n2cccn2)=C1c1c(F)cc(F)cc1F` [compound 25, 1-ethyl-5-(1H-pyrazol-1-yl)-6-(2,4,6-trifluorophenyl)-3,4-dihydropyridin-2(1H)-one], with > 50%; and `CCn1c(-c2c(F)cc(F)cc2F)c(-n2cccn2)ccc1=O` [compound 26, 1-ethyl-5-(1H-pyrazol-1-yl)-6-(2,4,6-trifluorophenyl)pyridin-2(1H)-one], with > 50%.

For the molecule `CCn1c(-c2c(F)cc(F)cc2F)c(-n2cc(Cl)cn2)ccc1=O` [compound 27, 5-(4-chloro-1H-pyrazol-1-yl)-1-ethyl-6-(2,4,6-trifluorophenyl)-pyridin-2(1H)-one], the pest or weed control at 250 ppm is > 50%. Still for that read-out and setting: the value for `CCn1c(-c2c(F)cc(F)cc2F)c(-n2cncn2)cc(Cl)c1=O` [compound 34, 3-chloro-1-ethyl-5-(1H-1,2,4-triazol-1-yl)-6-(2,4,6-trifluorophenyl)pyridin-2(1H)-one] was > 50%; that for `CCn1c(-c2c(F)cc(F)cc2F)c(-n2ncnc2Br)cc(Cl)c1=O` [compound 35, 5-(5-bromo-1H-1,2,4-triazol-1-yl)-3-chloro-1-ethyl-6-(2,4,6-trifluorophenyl)pyridin-2(1H)-one] was > 50%; that for `CCn1c(-c2c(F)cc(F)cc2F)c(-c2cnco2)cc(Cl)c1=O` [compound 36, 3-chloro-1-ethyl-5-(oxazol-5-yl)-6-(2,4,6-trifluorophenyl)pyridin-2(1H)-one] was > 50%. The same measure, in the same setting: then `CCn1c(-c2c(F)cc(F)cc2F)c(-n2cc(Cl)cn2)cc(Cl)c1=O` [compound 40, 3-chloro-5-(4-chloro-1H-pyrazol-1-yl)-1-ethyl-6-(2,4,6-trifluoro-phenyl)pyridin-2(1H)-one], with > 50%; and `CCn1c(-c2c(F)cc(OC)cc2F)c(-n2cc(Cl)cn2)cc(Cl)c1=O` [compound 41, 3-chloro-5-(4-chloro-1H-pyrazol-1-yl)-6-(2,6-difluoro-4-methoxyphenyl)-1-ethylpyridin-2(1H)-one], with > 50%. For the molecule `CCn1c(-c2c(F)cccc2F)c(-c2ocnc2C)cc(Cl)c1=O` [compound 43, 3-chloro-6-(2,6-difluorophenyl)-1-ethyl-5-(4-methyloxazol-5-yl)pyridin-2(1H)-one], the pest or weed control at 250 ppm was > 50%. On the same count and under the same terms, the value for `CCn1c(-c2c(F)cc(F)cc2F)c(-n2cc(Br)cn2)cc(Cl)c1=O` [compound 70, 5-(4-bromo-1H-pyrazol-1-yl)-3-chloro-1-ethyl-6-(2,4,6-trifluorophenyl)pyridin-2(1H)-one] was < 50%; that for `CCn1c(-c2c(F)cc(F)cc2F)c(-n2cc(Cl)cn2)cc(Br)c1=O` [compound 71, 5-(4-chloro-1H-pyrazol-1-yl)-1-ethyl-3-bromo-6-(2,4,6-trifluoro-phenyl)pyridin-2(1H)-one] was > 50%. The same measure, in the same setting: the value for `CCn1c(-c2c(F)cc(OC)cc2F)c(-n2cc(Br)cn2)cc(Cl)c1=O` [compound 72, 5-(4-bromo-1H-pyrazol-1-yl)-3-chloro-6-(2,6-difluoro-4-methoxyphenyl)-1-ethylpyridin-2(1H)-one] was > 50%. On the same count and under the same terms, then `CCn1c(-c2c(F)cccc2F)c(-c2c[nH]cc2C#N)cc(Cl)c1=O` [compound 88, 4-(5-chloro-1-ethyl-6-oxo-2-(2,6-difluorophenyl)-1,6-dihydro-pyridin-3-yl)-1H-pyrrol-3-carbonitrile], with < 50%; and `CCn1c(-c2c(F)cc(F)cc2F)c(-c2ocnc2Cl)cc(Cl)c1=O` [compound 112, 3-chloro-5-(4-chlorooxazol-5-yl)-1-ethyl-6-(2,4,6-trifluoro-phenyl)pyridin-2(1H)-one], with > 50%; and `CCn1c(-c2c(F)cc(F)cc2F)c(-n2cnc(Cl)c2Cl)ccc1=O` [compound 136, 5-(4,5-dichloro-1H-imidazol-1-yl)-1-ethyl-6-(2,4,6-trifluorophenyl)pyridin-2(1H)-one], with > 50%.

For `CCn1c(-c2c(F)cc(F)cc2F)c(-n2cnc(Cl)c2Cl)cc(Cl)c1=O` [compound 138, 3-chloro-5-(4,5-dichloro-1H-imidazol-1-yl)-1-ethyl-6-(2,4,6-trifluorophenyl)pyridin-2(1H)-one], the pest or weed control at 250 ppm is > 50%. On the same count and under the same terms, then `CCn1c(-c2c(F)cc(F)cc2F)c(-n2cc(Cl)cn2)cc(I)c1=O` [compound 140, 5-(4-chloro-1H-pyrazol-1-yl)-1-ethyl-3-iodo-6-(2,4,6-trifluoro-phenyl)pyridin-2(1H)-one], with > 50%.
